According to the supplement of paper PMC12217912:
The list shows a part of the results. The full chains were built here from the parent and the listed change. Inactive controls read about 0.05.

B1: TEV protease; numbered along this chain (parent)
chain: MGESLFKGPRDYNPISSSICHLTNESDGHTTSLYGIGFGPFIITNKHLFRRNNGTLVVQSLHGVFKVKDTTTLQQHLVDGRDMIIIRMPKDFPPFPQKLKFREPQREERICLVTTNFQTKSMSSMVSDTSCTFPSGDGIFWKHWIQTKDGQCGSPLVSTRDGFIVGIHSASNFTNTNNYFTSVPKNFMELLTNQEAQQWVSGWRLNADSVLWGGHKVFMVKPEEPFQPVKEATQL

Variants of: B1
Test: raw area under fraction-flipped curve 0-4 h after induction (AUC4h, not background-subtracted), DNA-recorder readout of cleavage of the substrate (dimensionless); higher = more cleavage of the substrate by the protease variant
Conditions: temperature: 34 °C; time window: 0-4 h after rhamnose induction
Experimental: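 In vivo DNA recorder in E. coli TOP10(DE3) ΔrhaA at 34 °C. Each TEVp single-site mutant (parent TEVp 0) is paired with a single-site variant of the 7-mer TEVs (canonical ENLYFQ|S). The substrate sits between flexible linkers in a Bxb1-sfGFP-TEVs-SsrA fusion, so cleavage stabilises Bxb1 and speeds flipping of a recombination array, read by NGS. The value is the raw area under the fraction-flipped curve over 0-4 h after rhamnose induction (AUC4h), with ≥20 reads per time point. It is not background-subtracted; inactive controls average about 0.047.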
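Further: Bxb1 expression induced with 0.2% (w/v) L-rhamnose at OD600 near 0.5, cultures sampled hourly, flipped fraction per protease–substrate barcode pair counted by paired-end Illumina sequencing.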

Variant	area with substrate ENLYAQS	area with substrate ENLYCQS	area with substrate ENLYDQS	area with substrate ENLYEQS	area with substrate ENLYGQS	area with substrate ENLYHQS	area with substrate ENLYIQS	area with substrate ENLYKQS	area with substrate ENLYMQS	area with substrate ENLYNQS
MGESLFKGPRDYNPISSSICHLTNESDGHTTSLYGIGFGPFIITNKHLFRRNNGTLVVQSLHGVFKVKDTTTLQQHLVDGRDMIIIRMPKDFPPFPQKLKFREPQREERICLVTTNFQTKSMSSMVSDTSCTFPSGDGIFWKHWIQTKDGQCGSPLVSTRDGFIVGIHSASNFTNTNNYFTSVPKNGMELLTNQEAQQWVSGWRLNADSVLWGGHKVFMVKPEEPFQPVKEATQL [F187G]	0.0584	0.0724	0.0512	0.0638	0.0442	0.0491	0.0588	0.0422	0.0521	0.0582
MGESLFKGPRDYNPISSSICHLTNESDGHTTSLYGIGFGPFIITNKHLFRRNNGTLVVQSLHGVFKVKDTTTLQQHLVDGRDMIIIRMPKDFPPFPQKLKFREPQREERICLVTTNFQTKSMSSMVSDTSCTFPSGDGIFWKHWIQTKDGQCGSPLVSTRDGFIVGIHSASNFTNTNNYFTSVPKNFRELLTNQEAQQWVSGWRLNADSVLWGGHKVFMVKPEEPFQPVKEATQL [M188R]	0.0702		0.0591	0.0663	0.0459	0.0655	0.137	0.0661		0.0658
MGESLFKGPRDYNPISSSICHLTNESDGHTTSLYGIGFGPFIITNKHLFRRNNGTLVVQSLHGVFKVKDTTTLQQHLVDGRDMIIIRMPKDFPPFPQKLKFREPQREERICLVTTNFQTKSMSSMVSDTSCTFPSGDGIFWKHWIQTKDGQCGSPLVSTRDGFIVGIHSASNFTNTNNYFTSVPKNFMLLLTNQEAQQWVSGWRLNADSVLWGGHKVFMVKPEEPFQPVKEATQL [E189L]	0.0628			0.0678		0.0602		0.067	0.0772	0.0599
MGESLFKGPRDYNPISSSICHLTNESDGHTTSLYGIGFGPFIITNKHLFRRNNGTLVVQSLHGVFKVKDTTTLQQHLVDGRDMIIIRMPKDFPPFPQKLKFREPQREERICLVTTNFQTKSMSSMVSDTSCTFPSGDGIFWKHWIQTKDGQCGSPLVSTRDGFIVGIHSASNFTNTNNYFTSVPKNFMEPLTNQEAQQWVSGWRLNADSVLWGGHKVFMVKPEEPFQPVKEATQL [L190P]	0.0763			0.0676	0.0707	0.0532		0.0666		
MGESLFKGPRDYNPISSSICHLTNESDGHTTSLYGIGFGPFIITNKHLFRRNNGTLVVQSLHGVFKVKDTTTLQQHLVDGRDMIIIRMPKDFPPFPQKLKFREPQREERICLVTTNFQTKSMSSMVSDTSCTFPSGDGIFWKHWIQTKDGQCGSPLVSTRDGFIVGIHSASNFTNTNNYFTSVPKNFMELLTCQEAQQWVSGWRLNADSVLWGGHKVFMVKPEEPFQPVKEATQL [N193C]	0.0764		0.024		0.0643		0.112			0.0794
MGESLFKGPRDYNPISSSICHLTNESDGHTTSLYGIGFGPFIITNKHLFRRNNGTLVVQSLHGVFKVKDTTTLQQHLVDGRDMIIIRMPKDFPPFPQKLKFREPQREERICLVTTNFQTKSMSSMVSDTSCTFPSGDGIFWKHWIQTKDGQCGSPLVSTRDGFIVGIHSASNFTNTNNYFTSVPKNFMELLTNCEAQQWVSGWRLNADSVLWGGHKVFMVKPEEPFQPVKEATQL [Q194C]	0.0736		0.086	0.0618	0.0651	0.0867		0.0776	0.0792	0.0712
MGESLFKGPRDYNPISSSICHLTNESDGHTTSLYGIGFGPFIITNKHLFRRNNGTLVVQSLHGVFKVKDTTTLQQHLVDGRDMIIIRMPKDFPPFPQKLKFREPQREERICLVTTNFQTKSMSSMVSDTSCTFPSGDGIFWKHWIQTKDGQCGSPLVSTRDGFIVGIHSASNFTNTNNYFTSVPKNFMELLTNQEAQSWVSGWRLNADSVLWGGHKVFMVKPEEPFQPVKEATQL [Q198S]	0.0712		0.0577		0.0689	0.0741		0.0382		0.0497
MGESLFKGPRDYNPISSSICHLTNESDGHTTSLYGIGFGPFIITNKHLFRRNNGTLVVQSLHGVFKVKDTTTLQQHLVDGRDMIIIRMPKDFPPFPQKLKFREPQREERICLVTTNFQTKSMSSMVSDTSCTFPSGDGIFWKHWIQTKDGQCGSPLVSTRDGFIVGIHSASNFTNTNNYFTSVPKNFMELLTNQEAQQYVSGWRLNADSVLWGGHKVFMVKPEEPFQPVKEATQL [W199Y]	0.0781		0.031			0.051		0.0573	0.0653	0.0551
MGESLFKGPRDYNPISSSICHLTNESDGHTTSLYGIGFGPFIITNKHLFRRNNGTLVVQSLHGVFKVKDTTTLQQHLVDGRDMIIIRMPKDFPPFPQKLKFREPQREERICLVTTNFQTKSMSSMVSDTSCTFPSGDGIFWKHWIQTKDGQCGSPLVSTRDGFIVGIHSASNFTNTNNYFTSVPKNFMELLTNQEAQQWVCGWRLNADSVLWGGHKVFMVKPEEPFQPVKEATQL [S201C]	0.0744			0.0737	0.0765		0.105			

Same assay, conditions: temperature: 34 °C; time window: 0-4 h after rhamnose induction

Variant	area with substrate ENLYPQS	area with substrate ENLYRQS	area with substrate ENLYVQS	area with substrate ENLYQQS	area with substrate ENLYSQS	area with substrate ENLYYQS	area with substrate ENLYLQS	area with substrate ENLYTQS	area with substrate ENLYWQS
MGESLFKGPRDYNPISSSICHLTNESDGHTTSLYGIGFGPFIITNKHLFRRNNGTLVVQSLHGVFKVKDTTTLQQHLVDGRDMIIIRMPKDFPPFPQKLKFREPQREERICLVTTNFQTKSMSSMVSDTSCTFPSGDGIFWKHWIQTKDGQCGSPLVSTRDGFIVGIHSASNFTNTNNYFTSVPKNGMELLTNQEAQQWVSGWRLNADSVLWGGHKVFMVKPEEPFQPVKEATQL [F187G]	0.0641	0.0501	0.0745						
MGESLFKGPRDYNPISSSICHLTNESDGHTTSLYGIGFGPFIITNKHLFRRNNGTLVVQSLHGVFKVKDTTTLQQHLVDGRDMIIIRMPKDFPPFPQKLKFREPQREERICLVTTNFQTKSMSSMVSDTSCTFPSGDGIFWKHWIQTKDGQCGSPLVSTRDGFIVGIHSASNFTNTNNYFTSVPKNFRELLTNQEAQQWVSGWRLNADSVLWGGHKVFMVKPEEPFQPVKEATQL [M188R]	0.0701		0.119	0.063	0.0748	0.0643			
MGESLFKGPRDYNPISSSICHLTNESDGHTTSLYGIGFGPFIITNKHLFRRNNGTLVVQSLHGVFKVKDTTTLQQHLVDGRDMIIIRMPKDFPPFPQKLKFREPQREERICLVTTNFQTKSMSSMVSDTSCTFPSGDGIFWKHWIQTKDGQCGSPLVSTRDGFIVGIHSASNFTNTNNYFTSVPKNFMLLLTNQEAQQWVSGWRLNADSVLWGGHKVFMVKPEEPFQPVKEATQL [E189L]	0.0674		0.128	0.0577	0.0601	0.0626	0.0824	0.0442	0.0778
MGESLFKGPRDYNPISSSICHLTNESDGHTTSLYGIGFGPFIITNKHLFRRNNGTLVVQSLHGVFKVKDTTTLQQHLVDGRDMIIIRMPKDFPPFPQKLKFREPQREERICLVTTNFQTKSMSSMVSDTSCTFPSGDGIFWKHWIQTKDGQCGSPLVSTRDGFIVGIHSASNFTNTNNYFTSVPKNFMEPLTNQEAQQWVSGWRLNADSVLWGGHKVFMVKPEEPFQPVKEATQL [L190P]	0.068	0.0396	0.108	0.0621	0.0638	0.0576	0.0682		
MGESLFKGPRDYNPISSSICHLTNESDGHTTSLYGIGFGPFIITNKHLFRRNNGTLVVQSLHGVFKVKDTTTLQQHLVDGRDMIIIRMPKDFPPFPQKLKFREPQREERICLVTTNFQTKSMSSMVSDTSCTFPSGDGIFWKHWIQTKDGQCGSPLVSTRDGFIVGIHSASNFTNTNNYFTSVPKNFMELLTCQEAQQWVSGWRLNADSVLWGGHKVFMVKPEEPFQPVKEATQL [N193C]				0.0765			0.0745		
MGESLFKGPRDYNPISSSICHLTNESDGHTTSLYGIGFGPFIITNKHLFRRNNGTLVVQSLHGVFKVKDTTTLQQHLVDGRDMIIIRMPKDFPPFPQKLKFREPQREERICLVTTNFQTKSMSSMVSDTSCTFPSGDGIFWKHWIQTKDGQCGSPLVSTRDGFIVGIHSASNFTNTNNYFTSVPKNFMELLTNCEAQQWVSGWRLNADSVLWGGHKVFMVKPEEPFQPVKEATQL [Q194C]	0.0709	0.0634	0.108	0.0543	0.136			0.0834	0.0704
MGESLFKGPRDYNPISSSICHLTNESDGHTTSLYGIGFGPFIITNKHLFRRNNGTLVVQSLHGVFKVKDTTTLQQHLVDGRDMIIIRMPKDFPPFPQKLKFREPQREERICLVTTNFQTKSMSSMVSDTSCTFPSGDGIFWKHWIQTKDGQCGSPLVSTRDGFIVGIHSASNFTNTNNYFTSVPKNFMELLTNQEAQSWVSGWRLNADSVLWGGHKVFMVKPEEPFQPVKEATQL [Q198S]		0.0602		0.0609	0.065		0.0942		0.0649
MGESLFKGPRDYNPISSSICHLTNESDGHTTSLYGIGFGPFIITNKHLFRRNNGTLVVQSLHGVFKVKDTTTLQQHLVDGRDMIIIRMPKDFPPFPQKLKFREPQREERICLVTTNFQTKSMSSMVSDTSCTFPSGDGIFWKHWIQTKDGQCGSPLVSTRDGFIVGIHSASNFTNTNNYFTSVPKNFMELLTNQEAQQWVCGWRLNADSVLWGGHKVFMVKPEEPFQPVKEATQL [S201C]		0.0742	0.111			0.0587			
